Measurements: PubChem BioAssay AID686978 (National Center for Advancing Translational Sciences (NCATS), 2013)
Among all 420,000 compounds or so, about 64,000 (15%) were called active. The inconclusive results got no clear call from the source; some entries with a clear call stand among them for comparison. Calls follow the shape of the dose curve; as a rule, active = well fitted inhibition curve with a large enough effect; inconclusive = small, poorly fitted or top-dose-only effect; inactive = flat fitted curve, though single readings scatter. No potency is given beside an inconclusive call; the fits are too rough.

assay: qHTS for Inhibitors of human tyrosyl-DNA phosphodiesterase 1 (TDP1): qHTS in cells in absence of CPT; conditions: DT40 Tdp1-/- hTDP1 cells, no CPT, ATP luminescence, 48 h; activity change, negative = growth inhibition: at 46.2 µM (top of the series); also: nearly all actives have a fitted effect of over 55% in size
Method in brief: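 Chicken DT40 Tdp1-/- cells complemented with human TDP1, screened without camptothecin (DMSO vehicle only), 400 cells/well. Compounds pin-transferred, cells incubated at 37 °C for at least 48 hr. Growth read as ATP-dependent luminescence (CellTiter-Glo, 30 min at RT).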
% is scaled to controls: 0 for no effect and ±100 for the full control effect; potency is read from the fitted curve at half-maximal effect; tags tell the direction and shape of the fitted curve.

Question: Which Potency does the source give for `CCc1nnc(NC(=O)CCn2cnc3ccccc3c2=O)s1` here?
Answer: Its Potency is inconclusive [inhibitor, full curve, poor fit].

Question: For `CCN(CC(=O)NCc1ccc2c(c1)OCO2)S(=O)(=O)c1ccc(F)cc1`, which “activity change, negative = growth inhibition” value is on record?
Answer: The value was inactive: 2.55%.

Question: Which “activity change, negative = growth inhibition” value does the source give for `CCOC(=O)CC1=C(C(=O)OCC)C(c2cccnc2)C(C#N)=C(N)O1` (stereo not given) here?
Answer: Its value is inactive: 0.825%.

Question: For `COc1ccccc1OCC(=O)Nc1ccc(S(=O)(=O)N2CCN(C)CC2)cc1`, which Potency is on record?
Answer: Its Potency is inconclusive [inhibitor, single point].

Question: With `CC1CCN(c2cc3c(cc2F)c(=O)c(S(=O)(=O)c2ccc(Cl)cc2)cn3C)CC1` as the compound, how does the Potency read?
Answer: Its Potency is inconclusive [inhibitor, single point].

Question: For `COc1ccc(Nc2nc3c(S(=O)(=O)c4ccc(Br)cc4)nnn3c3ccsc23)c(OC)c1`, which Potency is on record?
Answer: Its Potency is active: 20.6 µM.

Question: Which Potency does the source give for `O=C1Cn2nnc(-c3ccccc3)c2C2c3ccccc3CCN12` (stereo not given) here?
Answer: The Potency was inconclusive [inhibitor, single point].

Question: Which Potency does the source give for `O=C(OCc1cc2ccccc2[nH]c1=O)c1cccs1` here?
Answer: The Potency was inconclusive [inhibitor, full curve, poor fit].

Question: For `COc1ccc(-c2csc(N(CCCN(C)C)C(=O)c3ccc(OC)c(OC)c3)n2)cc1`, which “activity change, negative = growth inhibition” value is on record?
Answer: Its value is inactive: -35.2%.

Question: For `CCn1cc(C(=O)N2CCN(c3cc(Cl)ccc3C)CC2)c(=O)c2cc(S(=O)(=O)N3CCOCC3)ccc21`, which activity change, negative = growth inhibition is on record?
Answer: Its activity change, negative = growth inhibition is inconclusive: -24.2% [inhibitor].

Question: For `CCC(=O)N1CCc2cc(Br)cc(S(=O)(=O)N3CCC(C(=O)N(CC)CC)CC3)c21`, which Potency is on record?
Answer: The Potency was inconclusive [inhibitor, single point].

Question: Which “activity change, negative = growth inhibition” value does the source give for `CCN1CCN(CCOc2ccccc2-c2ccccc2)CC1` here?
Answer: Its value is inactive: -24.1%.

Question: For `CN(C(=O)c1cc(COc2ccc(F)cc2Cl)on1)C1CCOC1` (stereo not given), which Potency is on record?
Answer: The Potency was inconclusive [inhibitor, single point].

Question: With `CC(Oc1ccc(Cl)cc1Cl)C(=O)NNC(=O)[C@@H]1CCCC[C@@H]1C(=O)O` (stereo not given in full) as the compound, how does the Potency read?
Answer: Its Potency is inconclusive [inhibitor, single point].

Question: For `Cc1ccc(-n2nnc(-c3cccnc3)n2)cc1`, which Potency is on record?
Answer: Its Potency is inconclusive [inhibitor, partial curve].

Question: For `CCCn1cnnc1CNC(=O)[C@H]1O[C@@H](n2ccc(=O)[nH]c2=O)[C@H](O)[C@@H]1O`, which “activity change, negative = growth inhibition” value is on record?
Answer: The value was inactive: -7.52%.

Question: For `CC(C)(C)C1CCC(C(=O)NCCc2ccc(S(N)(=O)=O)cc2)CC1` (stereo not given), which Potency is on record?
Answer: The Potency was inconclusive [inhibitor, single point].

Question: For `COc1cc(C(=O)NCCC(=O)NCCCN2CCCCC2)cc(OC)c1OC`, which “activity change, negative = growth inhibition” value is on record?
Answer: The value was inactive: -13.1%.

Question: For `CC1CCCN(CC(O)CN)C1` (stereo not given), which “activity change, negative = growth inhibition” value is on record?
Answer: The value was inactive: -1.6%.

Question: Which Potency does the source give for `Oc1ccc(N2CCN(Cc3cc4c(cc3Br)OCCO4)CC2)cc1` here?
Answer: The Potency was active: 23.1 µM.
